# From article PMC4336329 (PLoS ONE, 2015)
# The campaign covered roughly 310,000 compounds. About 2,200 (0.71%) showed an effect of 50% or more. The effect is printed as a negative number. The list shows a part of the results.
# Target: human ether-à-go-go-related gene (hERG) potassium channel (human, UniProt Q12809)
# Assay: primary screen, population patch clamp on CHO cells stably expressing hERG
# Sequence of human ether-à-go-go-related gene (hERG) potassium channel (Q12809 whole entry, looked up): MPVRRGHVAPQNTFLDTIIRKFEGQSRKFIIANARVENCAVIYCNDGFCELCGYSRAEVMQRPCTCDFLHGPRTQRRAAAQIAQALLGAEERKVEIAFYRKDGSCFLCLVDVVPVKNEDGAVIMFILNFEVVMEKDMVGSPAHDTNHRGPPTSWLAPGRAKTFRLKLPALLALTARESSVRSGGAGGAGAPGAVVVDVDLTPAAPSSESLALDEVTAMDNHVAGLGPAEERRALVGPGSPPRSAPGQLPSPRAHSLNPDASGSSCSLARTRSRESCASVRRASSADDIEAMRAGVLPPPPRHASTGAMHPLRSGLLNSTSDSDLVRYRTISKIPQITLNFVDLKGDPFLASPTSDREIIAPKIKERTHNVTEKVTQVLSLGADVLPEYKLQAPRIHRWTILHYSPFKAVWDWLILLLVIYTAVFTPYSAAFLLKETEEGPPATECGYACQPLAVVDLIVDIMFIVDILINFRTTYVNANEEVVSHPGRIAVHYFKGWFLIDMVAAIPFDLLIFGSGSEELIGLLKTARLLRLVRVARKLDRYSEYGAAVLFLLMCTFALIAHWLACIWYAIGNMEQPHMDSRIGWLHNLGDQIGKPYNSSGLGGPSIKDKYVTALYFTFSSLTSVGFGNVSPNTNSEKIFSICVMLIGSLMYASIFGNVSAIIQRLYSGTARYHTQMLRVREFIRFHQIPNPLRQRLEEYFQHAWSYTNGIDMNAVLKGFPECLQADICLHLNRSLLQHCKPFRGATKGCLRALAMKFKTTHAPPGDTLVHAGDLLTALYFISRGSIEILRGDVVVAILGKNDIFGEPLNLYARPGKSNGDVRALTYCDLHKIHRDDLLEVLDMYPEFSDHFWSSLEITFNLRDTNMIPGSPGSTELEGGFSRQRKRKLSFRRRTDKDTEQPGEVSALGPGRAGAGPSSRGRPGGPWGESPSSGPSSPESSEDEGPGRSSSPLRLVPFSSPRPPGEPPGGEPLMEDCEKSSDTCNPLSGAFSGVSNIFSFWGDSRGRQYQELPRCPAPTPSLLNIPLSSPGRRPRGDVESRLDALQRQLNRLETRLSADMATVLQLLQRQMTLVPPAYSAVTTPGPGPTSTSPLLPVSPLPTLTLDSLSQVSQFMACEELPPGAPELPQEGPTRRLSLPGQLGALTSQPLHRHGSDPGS
row,Compound,"hERG current change (%, negative = inhibition) at 1uM [%]"
1,O=C(NCCCN1CCOCC1)C(=O)N/N=C/c1ccccc1,-1.86
2,CCN(CC)C(=O)Oc1ccc(Br)c2ccccc12,4.72
3,O=C1CCCC2=C1C(c1cccs1)Nc1ccc3ncccc3c12 (stereo not drawn),-8.63
4,Cc1ccc(C(=O)N/N=C\c2ccc(Br)o2)o1,11.6
5,O=C(CSc1nc2ncccc2[nH]1)NCc1ccco1,9.04
6,Cc1cc(S(=O)(=O)NCCCN2CCOCC2)ccc1F,5.62
7,CCC/C=N/NC(=O)C1COc2ccccc2O1 (stereo not drawn),11.5
8,Cc1noc(NS(=O)(=O)c2ccc(NC(=O)c3ccc(N4C(=O)c5ccccc5C4=O)cc3)cc2)c1C,14.6
9,COc1ccc(OC)c(NC(=O)CSc2nnc(CNC(=O)COc3ccc(Cl)cc3)o2)c1,2.4
10,CSc1ccccc1C(=O)NCCCOC(C)C,-1.34
11,O=C(O)CSc1nc2c(cnn2-c2ccccc2)c(=O)n1-c1ccc(Br)cc1,6.81
12,Cc1cc(NC(=O)Cn2nc(C(F)(F)F)c3c2CCC3)no1,17.1
13,Cc1c(C(=O)Nc2ccc(F)cc2)oc2ccc(S(=O)(=O)N3CCC4(CC3)OCCO4)cc12,2.31
14,COc1cccc2cc(C(=O)NCCN3CCOCC3)c(=O)oc12,5.56
15,COc1cccc(N2CCN(S(=O)(=O)c3ccc(-c4coc(C)n4)cc3)CC2)c1,11.7
16,COC(=O)c1ccc(-c2n[nH]c(=O)c3ccccc23)cc1,-4.95
17,C=CCNC(=O)c1ccc(C(=O)c2ccccc2)cc1,-6.75
18,Cc1ccccc1OCc1n[nH]c(=S)n1-c1cccc(Cl)c1,14.7
19,Cc1csc(N(C(=O)c2ccc(S(=O)(=O)N(C)C)cc2)c2ccccc2)n1,9.95

row,Compound,"hERG current change (%, negative = inhibition) at 1uM [%]"
1,CCCCn1c(O)c(N=Nc2ccccn2)c2ccccc21,12.5
2,O=C(NCc1ccoc1)c1ccc(NC(=O)c2ccccc2Cl)cc1,10.4
3,Cc1ccc(C(=O)N(Cc2nnc(-c3ccc(Cl)cc3)o2)C2CC2)o1,-3.42
4,Cc1ccc(CSC2=NCCN2C(=O)C(C)Oc2ccccc2)cc1 (stereo not drawn),7.59
5,O=C(/C=N/O)Nc1ccccc1C(=O)O,-13.8
6,CC1CCCN(C(=O)COC(=O)c2n[nH]c3ccccc23)C1 (stereo not drawn),0.277
7,N#Cc1c(C(F)(F)F)cc(-c2ccc(Cl)cc2)nc1SCC(=O)O,4.99
8,O=C(CC(C(=O)O)c1c[nH]c2ccccc12)c1ccccc1 (stereo not drawn),9.56
9,Cc1cc(NC(=O)C2C3C(=O)N(CC4CCCO4)C(C(=O)NC(C)(C)C)C34C=CC2(C)O4)no1 (stereo not drawn),11.2
10,CCc1cccc(C)c1NC(=O)COC(=O)c1c2c(nc3ccccc13)/C(=C\c1cccs1)CCC2,13.9
11,CCc1cc(=O)oc2c(CNC(Cc3ccccc3)C(=O)O)c(O)ccc12 (stereo not drawn),18.9
12,O=C(CN1CCN(c2ccccc2)CC1)Nc1c(C(=O)C2CC2)oc2ccccc12,8.52
13,O=C(OCc1nc2ccsc2c(=O)[nH]1)c1ccc(Cl)s1,4.2
14,O=C(CCn1c(=O)oc2ccccc21)N1CCc2ccccc21,15.9
15,Cc1nnsc1C(=O)NC(=O)Nc1ccc(F)c(Cl)c1,11
16,CN1/C(=C\C=O)C(C)(C)c2ccccc21,3.65
17,CC(c1ccco1)N(C(=O)CSc1ccc(Br)cc1)c1ccccn1 (stereo not drawn),14.9
18,Cc1ccc(C(O)CN2C3=NCCN3c3ccccc32)cc1.Cl (stereo not drawn),-40.9
19,COc1ccc(C(=O)C2CCCN(Cc3cccn3-c3ccccn3)C2)c(C)c1 (stereo not drawn),-84.8

row,Compound,"hERG current change (%, negative = inhibition) at 1uM [%]"
1,O=C(CSc1nc2[nH]ncc2c(=O)[nH]1)Nc1ccc(F)cc1,13.3
2,CCn1c(=O)c2cc(C(=O)Nc3cccc(C(C)=O)c3)sc2c2ccccc21,9.6
3,Cc1ccc2nc(-c3cccc(-c4cccc(Cl)c4)c3)c(NCc3ccccc3)n2c1.O=C(O)C(F)(F)F,17.9
4,CN(C)CC(C)(C)CNS(=O)(=O)c1ccc(OC(F)(F)F)cc1.Cl,8.65
5,O=C(COC(=O)c1ccco1)NCC1CCCO1 (stereo not drawn),-0.29
6,C/C(=N\NC(=O)Cc1ccccc1)c1ccc(Br)s1,15.5
7,CCCCN(C(=O)CSc1cc(C)c2ccc(OC)cc2n1)c1c(N)n(Cc2ccccc2)c(=O)[nH]c1=O,10.7
8,CCOc1ccccc1N(C)C(=O)c1nn(-c2ccc(OC)cc2OC)c(=O)c2ccccc12,4.9
9,CCOC(=O)CNS(=O)(=O)c1c(C)noc1C,3.59
10,Cc1ccc(NC(=S)NC2CCCCC2)cc1S(=O)(=O)N(C)C,2.18
11,CNC(=S)Nc1cccc(C(=O)O)c1,21.9
12,CC(=O)N1CC(=O)N(CC(=O)Nc2ccc(Br)cc2)C1=S,11.9
13,O=S(=O)(Nc1ccc(-c2ccc3nncn3n2)cc1)c1ccccc1F,13.3
14,N#CC1(NC(=O)COC(=O)C23CC4CC(CC(O)(C4)C2)C3)CCCCC1,6.23
15,CN(C)CCN(Cc1ccccc1)C(=O)[C@H](Cc1ccccc1)N1C(=O)c2ccccc2C1=O,0.101
16,Brc1ccccc1OCCN1CCCC1,10
17,CCN(CC)S(=O)(=O)c1ccc(NC(=O)C2COc3ccccc3O2)cc1 (stereo not drawn),-3.48
18,CS(=O)(=O)c1ccc(Cl)c(NC(=O)CSc2nnc(-c3cccs3)n2N)c1,16.7
19,COc1cc(C(=O)NC2CC(C)(C)Cc3c2cnn3-c2ccccc2)cc(OC)c1OC (stereo not drawn),6.06
